This is one part of the list.
B1: PhoQ; a variant is named by its letters at X, in order, P23837 (parent)
chain: MKKLLRLFFPLSLRVRFLLATAAVVLVLSLAYGMVALIGYSVSFDKTTFRLLRGESNLFYTLAKWENNKLHVELPENIDKQSPTMTLIYDENGQLLWAQRDVPWLMKMIQPDWLKSNGFHEIEADVNDTSLLLSGDHSIQQQLQEVREDDDDAEMTHSVAVNVYPATSRMPKLTIVVVDTIPVELKSSYMVWSWFIYVLSANLLLVIPLLWVAAWWSLRPIEALAKEVRELEEHNRELLNPATTRELTSLVRNLNRLLKSERERYDKYRTTLTDLTHSLKTPLXXLQXXLRSLRSEKMSVSDAEPVMLEQISRISQQIGYYLHRASMRGGTLLSRELHPVAPLLDNLTSALNKVYQRKGVNISLDISPEISFVGEQNDFVEVMGNVLDNACKYCLEFVEISARQTDEHLYIVVEDDGPGIPLSKREVIFDRGQRVDTLRPGQGVGLAVAREITEQYEGKIVAGESMLGGARMEVIFGRQHSAPKDE

Variants of: B1
Assay: enrichment ratio after two sorts for PhoP signalling (ratio (wild type AVST 3.29)); higher = more functional
Conditions: with PhoP (E. coli)

Variant | enrichment ratio
RFHK | ≤ 0.25
EADT | ≤ 0.25
DSIH | ≤ 0.25
WQSE | ≤ 0.25
TPTY | ≤ 0.25
MSFI | 9.29
VWMY | ≤ 0.25
MFDY | ≤ 0.25
WLAM | ≤ 0.25
INSS | ≤ 0.25
FMPD | ≤ 0.25
YWAY | ≤ 0.25
GSLP | ≤ 0.25
PSPH | ≤ 0.25
SFGM | ≤ 0.25
FQDL | 0.265
SYMN | ≤ 0.25
TGWQ | 22.6
PIFN | ≤ 0.25
SNFT | ≤ 0.25
IYNV | ≤ 0.25

Variant | enrichment ratio
WMAG | ≤ 0.25
LYKA | ≤ 0.25
NNQF | ≤ 0.25
THCS | 9.03
TFNY | ≤ 0.25
GESM | 17.3
TTNI | 8.99
VELN | 2.26
YIMH | ≤ 0.25
HAQP | ≤ 0.25
GTTA | ≤ 0.25
WSEF | ≤ 0.25
QWNL | ≤ 0.25
DLKP | ≤ 0.25
DLLC | ≤ 0.25
HQVL | ≤ 0.25
RKLQ | ≤ 0.25
HGSA | ≤ 0.25
AHKN | ≤ 0.25
LKSC | ≤ 0.25
HGMN | ≤ 0.25

Variant | enrichment ratio
WKSP | ≤ 0.25
GHYQ | ≤ 0.25
SMHN | ≤ 0.25
QNMH | ≤ 0.25
TFNE | ≤ 0.25
VIMA | ≤ 0.25
LRNL | ≤ 0.25
VQQH | ≤ 0.25
KETQ | ≤ 0.25
PVMN | ≤ 0.25
EIGT | ≤ 0.25
DDES | ≤ 0.25
HNSC | ≤ 0.25
RKYT | ≤ 0.25
TYST | 2.83
MVLQ | 7.13
KCVS | ≤ 0.25
AISI | 22
PYWI | 5.43
NSFN | ≤ 0.25
SDKF | ≤ 0.25

Variant | enrichment ratio
KFSY | ≤ 0.25
FMAI | ≤ 0.25
PSPK | ≤ 0.25
GTPI | ≤ 0.25
GWDL | ≤ 0.25
PQWC | ≤ 0.25
IWNK | ≤ 0.25
LAPT | ≤ 0.25
KLRI | ≤ 0.25
LAGF | ≤ 0.25
RSYF | ≤ 0.25
DLIW | ≤ 0.25
DDHN | ≤ 0.25
IIIW | ≤ 0.25
MYTY | ≤ 0.25
SGGA | 8.12
MWWT | ≤ 0.25
NCSA | ≤ 0.25
PFTM | ≤ 0.25
PPCA | ≤ 0.25
YFHY | ≤ 0.25
